In publication PMC4624786:
No constants are given. Whether binding was seen depends on the method and setting. In cells and extracts the contact can be indirect. Some entries that bind do so weakly or less than the wild type. For some assays here: Where a sequence is shown, tags or fusion partners need not be part of it.

Chains of the proteins cited; added tags and fusions are not shown.
UniProt P70182: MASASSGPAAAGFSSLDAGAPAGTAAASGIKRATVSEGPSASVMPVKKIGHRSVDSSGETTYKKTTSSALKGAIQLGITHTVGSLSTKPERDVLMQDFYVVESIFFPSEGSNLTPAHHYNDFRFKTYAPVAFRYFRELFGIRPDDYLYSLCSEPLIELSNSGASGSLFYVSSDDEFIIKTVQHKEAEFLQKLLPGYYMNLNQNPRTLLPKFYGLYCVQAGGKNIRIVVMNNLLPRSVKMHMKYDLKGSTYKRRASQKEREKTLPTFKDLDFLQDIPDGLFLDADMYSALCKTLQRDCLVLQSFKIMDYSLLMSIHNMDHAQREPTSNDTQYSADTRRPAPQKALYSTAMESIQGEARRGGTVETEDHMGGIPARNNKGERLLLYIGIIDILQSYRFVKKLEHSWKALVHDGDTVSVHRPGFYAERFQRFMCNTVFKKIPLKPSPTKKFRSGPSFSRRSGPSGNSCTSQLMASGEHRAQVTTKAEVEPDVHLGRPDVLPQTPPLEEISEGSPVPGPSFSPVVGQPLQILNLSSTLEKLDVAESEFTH
UniProt Q80SW1: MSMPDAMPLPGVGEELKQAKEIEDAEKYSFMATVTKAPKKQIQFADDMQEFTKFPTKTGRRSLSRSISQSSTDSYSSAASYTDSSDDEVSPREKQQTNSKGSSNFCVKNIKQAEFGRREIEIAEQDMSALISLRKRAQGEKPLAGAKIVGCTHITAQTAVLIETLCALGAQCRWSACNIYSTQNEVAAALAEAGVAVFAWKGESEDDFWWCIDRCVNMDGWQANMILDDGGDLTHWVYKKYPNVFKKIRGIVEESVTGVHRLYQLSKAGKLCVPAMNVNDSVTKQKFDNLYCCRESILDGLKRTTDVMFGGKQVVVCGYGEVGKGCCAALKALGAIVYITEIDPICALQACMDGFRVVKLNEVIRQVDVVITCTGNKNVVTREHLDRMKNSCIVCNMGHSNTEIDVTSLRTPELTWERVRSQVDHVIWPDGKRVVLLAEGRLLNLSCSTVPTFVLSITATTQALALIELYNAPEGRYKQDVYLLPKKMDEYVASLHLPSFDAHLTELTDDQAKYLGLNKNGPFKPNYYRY

Assays:
[1] = molecular target: myc-tagged phosphatidylinositol phosphate kinase type Iα (mouse) (UniProt P70182); assay: co-IP; as the COS-7 co-IP, but lysis buffer with 1 mM MgCl2 and 1 mM EGTA instead of 2 mM EDTA (S1 Fig A)
[2] = molecular target: T1, myc-tagged phosphatidylinositol phosphate kinase type IIγ (rat) (UniProt O88370); assay: as above
T1 sequence: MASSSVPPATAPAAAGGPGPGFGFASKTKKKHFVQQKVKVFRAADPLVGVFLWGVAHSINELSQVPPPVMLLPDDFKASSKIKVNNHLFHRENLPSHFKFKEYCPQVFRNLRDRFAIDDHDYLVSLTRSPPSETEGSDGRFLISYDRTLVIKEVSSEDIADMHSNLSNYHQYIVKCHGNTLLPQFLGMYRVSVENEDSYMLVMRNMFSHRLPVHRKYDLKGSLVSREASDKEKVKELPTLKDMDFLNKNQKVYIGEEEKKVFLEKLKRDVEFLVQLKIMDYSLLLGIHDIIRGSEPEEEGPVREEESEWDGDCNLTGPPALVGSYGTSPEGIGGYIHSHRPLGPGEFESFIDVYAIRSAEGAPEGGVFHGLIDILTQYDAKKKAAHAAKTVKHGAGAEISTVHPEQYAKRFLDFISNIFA

With “Hemagglutinin (HA)-tagged IRBIT (IP3R-binding protein released with inositol 1,4,5-trisphosphate) (from UniProt Q80SW1 1-530)” as the substance, how does the binding [1] read?
Its binding is “binds”.

And the binding [2]?
The binding was “binds”.
